# The supplement of paper PMC4166925
# ± gives the standard deviation of the averaged measurements. Whole data set: some 33,000 sequences, median “E-score (dimensionless, -0.5 to 0.5)” near -0.049, cut for the highest 2% near 0.37. The list shows a part of the results.
# System: T1, PmTbr T-box DNA-binding domain (GST fusion)
# T1 sequence: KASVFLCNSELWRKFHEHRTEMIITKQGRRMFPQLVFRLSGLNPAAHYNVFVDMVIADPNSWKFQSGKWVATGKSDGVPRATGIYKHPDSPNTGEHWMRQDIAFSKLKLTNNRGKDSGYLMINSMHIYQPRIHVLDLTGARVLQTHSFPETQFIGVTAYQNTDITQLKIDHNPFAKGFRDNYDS
# Assay: PBM E-score of 8-mer (E-score (dimensionless, -0.5 to 0.5)); Tbr is Tbrain of the sea star Patiria miniata (Pm) or the sea urchin Strongylocentrotus purpuratus (Sp); higher = stronger binding preference; most listed sequences are background and not binding sites
# Details: the construct has about 5 more residues each side
# In short: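 Primer extension turned Universal Agilent oligonucleotide arrays double-stranded. They were incubated with 200 nM protein in PBS (pH 7.5); the protein was a GST-fused Tbr T-box DNA-binding domain expressed in BL21 E. coli at 20 °C and purified on glutathione. Every ungapped 8-mer was scored from the scanned, quantified probe intensities, and the Universal PBM Analysis Suite gave each an enrichment E-score averaged over duplicate arrays.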
row,Sequence,PBM E-score of 8-mer
1,TATTAGAA,-0.185 ± 0.04
2,GTATACTA,-0.0229 ± 0.037
3,ACCATGGG,-0.0421 ± 0.047
4,GCAGGTAC,-0.114 ± 0.022
5,CCCATGGG,-0.214 ± 0.016
6,AGAAGCAT,-0.357 ± 0.036
7,CGTAATGC,-0.1853 ± 0.00019
8,AATACCTA,-0.143 ± 0.061
9,TCAAGAAA,-0.17 ± 0.11
10,ATGCTACC,-0.139 ± 0.057
11,CGCTACAG,0.0997 ± 0.07
12,AAAGCGAT,-0.0541 ± 0.086
13,GAGAAAAA,0.109 ± 0.069
14,CACCAAGG,0.154 ± 0.024
15,TCCGGTAA,-0.111 ± 0.014
16,GGAAAAAA,-0.135 ± 0.051
17,CAAGACGC,-0.027 ± 0.058
18,ATTCGATA,0.111 ± 0.081
19,ACATTTCA,0.125 ± 0.0075
20,ATAGTTCA,-0.0384 ± 0.017
21,ATAATGCA,0.00791 ± 0.1
22,AATCCCGA,-0.192 ± 0.058
23,GCCGGAAC,-0.0937 ± 0.0089
24,ACACCCGG,0.3462 ± 0.00071
25,AGTTGCAT,-0.106 ± 0.042

row,Sequence,PBM E-score of 8-mer
1,CGTGGAAA,-0.0945 ± 0.027
2,ACAGCAAA,-0.0639 ± 0.066
3,CTTGCTCA,0.0359 ± 0.0032
4,ACATACAT,-0.173 ± 0.028
5,AGAGCATA,-0.258 ± 0.012
6,CGCAGCAC,0.0184 ± 0.054
7,AATATGGG,-0.0411 ± 0.027
8,GCTCGGAC,-0.229 ± 0.01
9,ATTCTTGC,-0.174 ± 0.05
10,CGTCTGCC,0.00703 ± 0.083
11,GTCCACAC,0.346 ± 0.0095
12,CTGGAATA,-0.045 ± 0.038
13,GATATATC,0.101 ± 0.037
14,ACTGAGTA,-0.146 ± 0.05
15,AAGACCAG,0.0377 ± 0.13
16,AACTACGC,0.0192 ± 0.043
17,CGTTTAGA,-0.165 ± 0.034
18,GAGCGCCA,0.0605 ± 0.028
19,ACGGCGCG,0.23584 ± 0.00022
20,ACTCCATA,0.0894 ± 0.0061
21,CGTCGACC,-0.0661 ± 0.0047
22,ATAGCCGC,-0.0519 ± 0.16
23,CACCGCAG,-0.0173 ± 0.065
24,GTAGCAAC,0.2223 ± 0.00093
25,CACGTTGG,0.261 ± 0.0042

row,Sequence,PBM E-score of 8-mer
1,AACAGGCA,-0.114 ± 0.083
2,CTTACACA,0.277 ± 0.012
3,GTCACCCA,0.259 ± 0.056
4,AGTAAAGA,-0.136 ± 0.037
5,AATTTATC,0.0791 ± 0.073
6,ACCTGGAC,0.0878 ± 0.0041
7,CTAGATAC,-0.196 ± 0.018
8,AATCGGAG,-0.164 ± 0.0056
9,AAAACTAT,-0.0637 ± 0.068
10,CAAGACAA,0.074 ± 0.057
11,GGGTGCCA,0.426 ± 0.011
12,TGCTCCCA,-0.142 ± 0.01
13,AGCCACCG,-0.0981 ± 0.014
14,CTAGGTCC,-0.13 ± 0.071
15,GAACACCC,0.1762 ± 0.00083
16,GCGACAGA,0.284 ± 0.01
17,GCAGCTGA,0.108 ± 0.055
18,AATCTTTG,-0.0184 ± 0.015
19,CTACAAAA,-0.0644 ± 0.12
20,TTGTACAA,-0.0404 ± 0.039
21,AGGTAAAA,0.0141 ± 0.096
22,GAAGTCGA,0.0477 ± 0.01
23,GATTCCCC,0.0772 ± 0.026
24,AACTGTTG,0.242 ± 0.019
25,ATGGTTTG,-0.193 ± 0.0089

row,Sequence,PBM E-score of 8-mer
1,ATAGCAGA,-0.0487 ± 0.06
2,AAGCCGCA,-0.0359 ± 0.11
3,GCTCTCAA,-0.0325 ± 0.086
4,AGCCAAGC,-0.298 ± 0.076
5,GGGGACTA,-0.238 ± 0.0003
6,CTGGTACA,-0.107 ± 0.022
7,GAAAGGCC,-0.14 ± 0.095
8,GGGAACCA,-0.241 ± 0.017
9,CAAAACAG,0.0766 ± 0.048
10,CCTTACTC,-0.235 ± 0.019
11,GCGGTGGA,-0.182 ± 0.0027
12,AGGCGGAT,-0.128 ± 0.016
13,CACTTCTC,0.315 ± 0.008
14,ATTGCGAC,0.124 ± 0.017
15,CGGCTGAG,-0.1 ± 0.073
16,CTCCCGAG,-0.136 ± 0.099
17,AGCTTATC,-0.0151 ± 0.013
18,CGAGTGCA,-0.0272 ± 0.087
19,CTCGTAAG,-0.0899 ± 0.055
20,GCATGTAC,-0.214 ± 0.029
21,GGTGAGCA,0.212 ± 0.044
22,CATAGCAA,-0.144 ± 0.047
23,ATATTAAA,-0.0562 ± 0.061
24,CGGTACCA,-0.0668 ± 0.077
25,CTTTACGA,-0.265 ± 0.053

row,Sequence,PBM E-score of 8-mer
1,TGTTAAAA,0.354 ± 0.043
2,CCTGAAGC,-0.102 ± 0.026
3,AAAAAGGA,-0.122 ± 0.064
4,AAGTCCTG,-0.111 ± 0.013
5,TAAGGTGA,0.3578 ± 0.00067
6,ACGCAGGC,-0.0679 ± 0.022
7,CGAAGTAG,0.0743 ± 0.0042
8,CCTAGGCA,-0.0464 ± 0.077
9,CAGTAAAC,-0.125 ± 0.0037
10,ACGTTAGC,0.216 ± 0.034
11,ATGTACTG,-0.142 ± 0.013
12,CTCAGGTA,-0.211 ± 0.05
13,ACGGCTCC,0.0346 ± 0.0058
14,ACAACGAC,0.00975 ± 0.016
15,GAGGCCTC,-0.138 ± 0.035
16,ATTAATAC,-0.0944 ± 0.11
17,CGAGTTAG,-0.0558 ± 0.052
18,GACAGGGA,-0.0314 ± 0.0093
19,AAAGCGTT,0.0875 ± 0.015
20,CCCGTAGG,-0.1 ± 0.044
21,CTACACAA,-0.0889 ± 0.029
22,GGCACCCA,0.217 ± 0.018
23,ATAGCCGG,-0.21 ± 0.0076
24,CCTCCATA,-0.11 ± 0.033
25,CGCTCCCA,-0.0363 ± 0.045

row,Sequence,PBM E-score of 8-mer
1,CCTAACTA,0.0326 ± 0.035
2,ACATTCTG,0.0382 ± 0.084
3,CAAGAGTC,-0.2167 ± 0.0016
4,GTTTGTAA,0.0584 ± 0.043
5,CCCAGATC,-0.0681 ± 0.1
6,ATGGAAAC,-0.0624 ± 0.0055
7,CACTGGGG,-0.0818 ± 0.0066
8,CAGACAAA,-0.0784 ± 0.036
9,GCATAACC,-0.069 ± 0.08
10,ATACCCGG,-0.0648 ± 0.0025
11,GCGTCGTA,-0.18 ± 0.016
12,CCTGCAGA,-0.0394 ± 0.048
13,CACAATGC,-0.04 ± 0.053
14,AACCGCCC,-0.185 ± 0.021
15,ATGAATCG,-0.0917 ± 0.0039
16,GAAAGCAC,0.0502 ± 0.04
17,AGCGGGAC,-0.0638 ± 0.055
18,GATTACGA,-0.00232 ± 0.07
19,GCAGTGGA,-0.223 ± 0.018
20,ACACTTAG,0.416 ± 0.0068
21,GACTGCCC,-0.219 ± 0.015
22,GATGGAGC,0.0899 ± 0.0051
23,AAGGCTAA,-0.164 ± 0.031
24,AGTTCTTC,-0.293 ± 0.02
25,ATCTTTTG,-0.2448 ± 0.0018

row,Sequence,PBM E-score of 8-mer
1,ACTACACG,0.161 ± 0.028
2,CGCTTCAA,0.0949 ± 0.078
3,CCTTTCGA,-0.06 ± 0.02
4,GCGCTTTA,-0.0283 ± 0.047
5,CACGGCTA,0.077 ± 0.043
6,ACGAGAGC,0.0227 ± 0.0097
7,AGGGCTAA,-0.116 ± 0.051
8,ACTAGCTA,0.0589 ± 0.011
9,TCGGACCA,-0.167 ± 0.0061
10,CTATGACC,-0.075 ± 0.029
11,AACTATCG,0.0405 ± 0.087
12,GCGAGATA,0.11 ± 0.011
13,GACTAGGA,-0.0612 ± 0.068
14,AGTTACTA,-0.193 ± 0.023
15,CGATCAAG,-0.0546 ± 0.0099
16,CTGGCCTA,-0.178 ± 0.016
17,GAGCAACA,0.135 ± 0.12
18,GCGATAAA,0.242 ± 0.077
19,CGGCGAGC,-0.229 ± 0.024
20,ACTGGGAG,-0.1443 ± 0.0012
21,TGACGGAA,0.115 ± 0.0047
22,AGAGCCCT,-0.258 ± 0.044
